{"source": "PubChem BioAssay AID1030", "about": "(National Center for Advancing Translational Sciences (NCATS), 2008)", "note": "Among all 220,000 compounds or so, about 16,000 (7.3%) were called active. Inconclusive means that the source gave no clear call. Such entries were picked first, then a sample of the others. The call rests on the fitted dose curve; in most records, active means well fitted inhibition curve with a large enough effect (not every such curve was filed as active); inconclusive means small, poorly fitted or top-dose-only effect, or another doubt; inactive means no such curve, though single readings can be large or run the other way. No potency is given beside an inconclusive call; the fits are too rough. Potency means the concentration at half of the fitted maximal effect; tags describe the fitted curve by direction and shape."}
{"biological_target": "Aldehyde dehydrogenase 1A1 (Homo sapiens) (UniProt P00352)", "sequence (P00352 whole entry, looked up)": "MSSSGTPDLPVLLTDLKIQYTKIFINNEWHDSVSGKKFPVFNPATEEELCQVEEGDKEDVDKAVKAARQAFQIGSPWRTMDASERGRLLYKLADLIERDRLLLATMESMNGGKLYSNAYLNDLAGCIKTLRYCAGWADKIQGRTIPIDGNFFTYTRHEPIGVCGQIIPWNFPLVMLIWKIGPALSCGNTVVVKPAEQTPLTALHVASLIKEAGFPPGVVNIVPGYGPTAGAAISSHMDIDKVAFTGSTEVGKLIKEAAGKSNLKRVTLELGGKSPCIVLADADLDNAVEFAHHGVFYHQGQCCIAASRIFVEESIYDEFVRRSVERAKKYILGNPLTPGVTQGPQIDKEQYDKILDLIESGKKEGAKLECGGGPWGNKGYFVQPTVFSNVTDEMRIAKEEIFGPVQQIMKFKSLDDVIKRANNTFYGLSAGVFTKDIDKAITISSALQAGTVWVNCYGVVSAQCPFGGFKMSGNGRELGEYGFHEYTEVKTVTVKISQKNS", "assay": "qHTS Assay for Inhibitors of Aldehyde Dehydrogenase 1 (ALDH1A1)", "conditions": "Purified ALDH1A1, NADH fluorescence, propionaldehyde substrate; series mostly up to 75.3 µM"}
{"smiles": "Cc1ccccc1CN(C)CC(=O)Nc1ccccc1-c1ccccc1", "Potency": "inconclusive [inhibitor, single point]"}
{"smiles": "O=C(N/N=C/c1ccc([N+](=O)[O-])s1)c1ccccc1Br", "Potency": "inconclusive [inhibitor, single point]"}
{"smiles": "Cc1ccc(S(=O)(=O)N2CCN(C(=O)Cc3ccc4c(c3)OCCO4)CC2)cc1C", "Potency": "inconclusive [inhibitor, single point]"}
{"smiles": "CCc1oc2ccccc2c1C(=O)CCN1CCCCC1", "Potency": "active: 0.112 µM"}
{"smiles": "Cc1cccc(NC(=S)N(Cc2cccs2)Cc2cc3cc(C)ccc3[nH]c2=O)c1", "Potency": "inconclusive [inhibitor, single point]"}
{"smiles": "COC(=O)c1cc(Cc2ccc(N)c(C(=O)OC)c2)ccc1N", "Potency": "inconclusive [inhibitor, single point]"}
{"smiles": "O=C(c1cnccn1)N1CCN(c2ccccc2)CC1", "Potency": "inactive"}
{"smiles": "Cn1c(N)c(C(=O)CSc2nc(N)cc(=O)[nH]2)c(=O)n(C)c1=O", "Potency": "inconclusive [inhibitor, partial curve, poor fit]"}
{"smiles": "CCC(CO)n1c(SCc2cc(=O)oc3cc(C)ccc23)nc2ccccc2c1=O", "note": "(centres undefined)", "Potency": "active: 4.47 µM"}
{"smiles": "CCn1c(Cc2ccc(OC)cc2)nnc1SCC(=O)Nc1nc2ccccc2s1", "Potency": "inconclusive [inhibitor, single point]"}
{"smiles": "COc1ccccc1C1/C(=C(/O)c2ccccc2)C(=O)C(=O)N1CCO", "note": "(centres undefined)", "Potency": "inactive"}
{"smiles": "CC1=C(C(=O)Nc2ccccc2)C(c2ccc3c(c2)OCO3)C2=C(CCCC2=O)N1", "note": "(centres undefined)", "Potency": "inconclusive [inhibitor, partial curve]"}
{"smiles": "O=C(CC1(O)C(=O)c2ccccc2C1=O)c1ccccc1", "Potency": "inconclusive [inhibitor, partial curve]"}
{"smiles": "CC1(C)CC2CC(C)(CN2C(=O)c2ccc([N+](=O)[O-])cc2)C1", "note": "(centres undefined)", "Potency": "inconclusive [inhibitor, single point]"}
{"smiles": "CC(=O)Nc1cc(S(=O)(=O)Nc2ccccc2C)c(C)cc1C", "Potency": "inactive"}
{"smiles": "O=C(Nc1ccc(N2CCCC2)c(Cl)c1)c1cccs1", "Potency": "inconclusive [inhibitor, single point]"}
{"smiles": "CNCCOc1ccccc1C(C)(C)C", "Potency": "inconclusive [inhibitor, single point]"}
{"smiles": "COc1cccc(/C=N/n2c(-c3cccs3)n[nH]c2=S)c1", "Potency": "inconclusive [inhibitor, partial curve]"}
{"smiles": "COc1ccc(C(=O)COC(=O)c2cc(S(=O)(=O)NCc3ccccc3)ccc2O)cc1", "Potency": "inconclusive [inhibitor, single point]"}
{"smiles": "COCCn1c(N)c(C(=O)NCC2CCCO2)c2nc3ccccc3nc21", "note": "(centres undefined)", "Potency": "inconclusive [inhibitor, partial curve]"}
{"smiles": "COc1cc(OC)c(C(=O)Oc2ccc3c(c2)OCO3)cc1OC", "Potency": "inconclusive [inhibitor, single point]"}
{"smiles": "Nn1c(SCC(=O)Nc2cccc(F)c2)nnc1C1CCCCC1", "Potency": "inactive"}
{"smiles": "Cc1ccc(-n2c(N)c(C#N)c(-c3ccc(Cl)cc3)c(C#N)c2=O)cc1", "Potency": "inconclusive [inhibitor, partial curve]"}
{"smiles": "O=C(c1ccc(S(=O)(=O)N2CCCC2)cc1)N1CCCc2ccccc21", "Potency": "inconclusive [inhibitor, full curve]"}
{"smiles": "Cc1ccc(NC(=O)CSCC(=O)NCCc2ccccn2)c(C)c1", "Potency": "inconclusive [inhibitor, single point]"}
{"smiles": "CCOC(=O)c1[nH]c(C)c(C(=O)c2ccc(C)cc2)c1C", "Potency": "inconclusive [inhibitor, single point]"}
{"smiles": "COC(=O)C1=C(C)OC(N)=C(C#N)C1c1ccccc1", "note": "(centres undefined)", "Potency": "inconclusive [inhibitor, partial curve]"}
{"smiles": "COc1ccc(NCC(=O)N/N=C/C=C/c2ccccc2[N+](=O)[O-])cc1", "Potency": "inconclusive [inhibitor, partial curve]"}
{"smiles": "COc1ccc(OC)c(NC(=O)c2cccc(C)c2[N+](=O)[O-])c1", "Potency": "inconclusive [inhibitor, single point]"}
{"smiles": "c1ccc(-c2c(-c3ccccc3)n(Cc3ccco3)c3ncnc(NCCCn4ccnc4)c23)cc1", "Potency": "inconclusive [inhibitor, partial curve]"}
{"smiles": "CCOC(=O)CSc1nc(C)cc(C)n1", "Potency": "inactive"}
{"smiles": "COc1ccc(CCNC(=O)CN2C(=O)NC(C)(c3ccc([N+](=O)[O-])cc3)C2=O)cc1", "note": "(centres undefined)", "Potency": "inactive"}
{"smiles": "C=CCc1ccc(OCCCN2CCCC(C)C2)c(OC)c1", "note": "(centres undefined)", "Potency": "active: 15.8 µM"}
{"smiles": "Cc1ccc(S(=O)(=O)N(C)C)cc1NC(=O)CCNC(=O)c1ccccc1Cl", "Potency": "inactive"}
{"smiles": "O=C(NNc1ncnc2c1cnn2-c1ccccc1)c1ccco1", "Potency": "inconclusive [inhibitor, full curve, poor fit]"}
{"smiles": "CC/C(=N/OC(=O)c1cccc(C)c1)C(=O)c1cccs1", "Potency": "inconclusive [inhibitor, single point]"}
{"smiles": "Cc1ccc(C(=O)c2c[nH]c3c(F)cc(F)cc3c2=O)cc1", "Potency": "inconclusive [inhibitor, full curve]"}
{"smiles": "Cn1/c(=N/N=C/c2ccc(N3CCOCC3)cc2)sc2ccccc21", "Potency": "inconclusive [inhibitor, single point]"}
{"smiles": "O=P(O)(O)COc1ccccc1P(=O)(c1ccccc1)c1ccccc1", "Potency": "inconclusive [inhibitor, single point]"}
{"smiles": "Cc1cc(S(=O)(=O)N2CCCC2)ccc1OCC(=O)NCc1ccco1", "Potency": "active: 10 µM"}
{"smiles": "CC(C)n1c(NCCc2ccccc2)nc2c1c(=O)n(C)c(=O)n2C", "Potency": "inactive"}
{"smiles": "CCCC(C(=O)NCc1ccccc1)N(C(=O)Cn1nnc(-c2cccs2)n1)c1ccc2c(c1)OCCO2", "note": "(centres undefined)", "Potency": "inactive"}
{"smiles": "CC1(C)CC(=O)C2=C(C1)N(CCN1CCOCC1)C1=C(C(=O)CC(C)(C)C1)C2c1ccc(Cl)cc1", "Potency": "inconclusive [inhibitor, single point]"}
{"smiles": "CC(=O)Nc1cccc(C(=O)/C=C/c2ccco2)c1", "Potency": "active: 10 µM"}
{"smiles": "CCCNC(=O)COc1ccc(S(=O)(=O)Nc2ccc(C)cc2)cc1", "Potency": "inactive"}
{"smiles": "CCOc1ccc(-c2c(C(=O)N/N=C/c3ccc(OC)cc3)nnn2-c2nonc2N)cc1", "Potency": "inconclusive [inhibitor, single point]"}
{"smiles": "Cc1cc(C)n(-c2nc(SCCN(C)C)c3c4c(sc3n2)COC(C)(C)C4)n1", "Potency": "inconclusive [inhibitor, single point]"}
{"smiles": "COc1cccc(Nc2ncc3ncc(=O)n(Cc4cccs4)c3n2)c1", "Potency": "inconclusive [inhibitor, partial curve]"}
{"smiles": "O=C(Nc1ccc2c3c(cccc13)CC2)c1ccco1", "Potency": "inconclusive [inhibitor, single point]"}
{"smiles": "COc1ccc(N2CC(C(=O)Nc3cccc(C)n3)CC2=O)cc1", "note": "(centres undefined)", "Potency": "inactive"}
{"smiles": "Cc1cccc(OCC(=O)Nc2ccc(N3CCCC3)cc2)c1C", "Potency": "active: 12.6 µM"}
{"smiles": "CCN(CC)S(=O)(=O)c1ccc(C(=O)Nc2nnc(COC)o2)cc1", "Potency": "inactive"}
{"smiles": "COC(=O)CSc1nc(C2CC2)cc(C(F)(F)F)c1C#N", "Potency": "inactive"}
{"smiles": "Cc1cccc(NC(=O)Nc2cccc(C#N)c2)n1", "Potency": "inactive"}
{"smiles": "O=c1c(-c2ccccc2)nc2cnc(Oc3cccc(Cl)c3)nc2n1C[C@H]1CCCO1", "Potency": "inconclusive [inhibitor, partial curve]"}
{"smiles": "CCOc1ccc(-c2nnn(CC(=O)N3CCN(c4ccc(OC)cc4)CC3)n2)cc1OCC", "Potency": "inactive"}
{"smiles": "Nc1cc(=O)[nH]c(SCC(=O)NNC(=O)Cc2ccccc2)n1", "Potency": "inactive"}
{"smiles": "O=C(O)c1cccc(NC(=S)N/N=C/c2ccccc2OCc2cccc(Br)c2)c1", "Potency": "inconclusive [inhibitor, single point]"}
{"smiles": "CCOC(=O)C1=C(c2ccccc2)NC(=O)NC1c1ccc(OCC#N)c(OC)c1", "note": "(centres undefined)", "Potency": "inconclusive [inhibitor, single point]"}
{"smiles": "Cc1cc(C(=O)N/N=C/c2cccc([N+](=O)[O-])c2)c2ccccc2n1", "Potency": "inconclusive [inhibitor, single point]"}
{"smiles": "Cn1nc(C(=O)NCc2ccccc2)c2ccccc2c1=O", "Potency": "active: 20 µM"}
{"smiles": "O=C(c1ccccc1)N1CCN(c2nc3ccc([N+](=O)[O-])cc3s2)CC1", "Potency": "active: 10 µM"}
{"smiles": "Cc1ccc(NC(=O)CSC2=C(C#N)C(c3ccco3)C3=C(CC(C)(C)CC3=O)N2)cc1", "note": "(centres undefined)", "Potency": "active: 12.6 µM"}
{"smiles": "CC(C)(C)n1nnnc1C(c1ccc(F)cc1)N(Cc1ccc(F)cc1)Cc1ccco1", "note": "(centres undefined)", "Potency": "inactive"}
{"smiles": "COc1cccc(NC(=O)Nc2cccs2)c1", "Potency": "inconclusive [inhibitor, single point]"}
{"smiles": "c1ccc(-n2nnnc2N2CCOCC2)cc1", "Potency": "inconclusive [inhibitor, single point]"}
{"smiles": "S=C1N(c2ccccc2)C(c2cccc3ccccc23)N2CCCN12", "note": "(centres undefined)", "Potency": "inactive"}
{"smiles": "CCOC(=O)N1CCC(N2CCCC(C(=O)c3ccc4cc(OC)ccc4c3)C2)CC1", "note": "(centres undefined)", "Potency": "inconclusive [inhibitor, partial curve]"}
{"smiles": "CC1(C)Cc2ccccc2C(=C(C#N)C#N)N1", "Potency": "inactive"}
{"smiles": "CCn1c(O)c(C2=c3ccccc3=NC2=O)c2cc(Br)ccc21", "Potency": "inactive"}
{"smiles": "Cc1nn(C)cc1CNC(=O)c1cccc(Br)c1", "Potency": "inactive"}
{"smiles": "CCOc1ncccc1C(=O)OCc1cccc([N+](=O)[O-])c1", "Potency": "inactive"}
{"smiles": "O=C(CCn1c(=S)[nH]c2ccccc2c1=O)NCCc1ccc(Cl)cc1", "Potency": "inactive"}
{"smiles": "CCOC(=O)N1CCC(NC(=O)c2oc3c(c2C)-c2[nH]ncc2CC3)CC1", "Potency": "inconclusive [inhibitor, single point]"}
